Some of the results follow. Sequences were assembled here from the parent chain. Inactive controls read about 0.05.
B1: TEV protease; numbered along this chain (parent)
chain: MGESLFKGPRDYNPISSSICHLTNESDGHTTSLYGIGFGPFIITNKHLFRRNNGTLVVQSLHGVFKVKDTTTLQQHLVDGRDMIIIRMPKDFPPFPQKLKFREPQREERICLVTTNFQTKSMSSMVSDTSCTFPSGDGIFWKHWIQTKDGQCGSPLVSTRDGFIVGIHSASNFTNTNNYFTSVPKNFMELLTNQEAQQWVSGWRLNADSVLWGGHKVFMVKPEEPFQPVKEATQL

Variants of: B1
Test: raw area under fraction-flipped curve 0-4 h after induction (AUC4h, not background-subtracted), DNA-recorder readout of cleavage of the substrate (dimensionless); higher = more cleavage of the substrate by the protease variant
Settings: temperature: 34 °C; time window: 0-4 h after rhamnose induction
Experimental: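 In vivo DNA recorder in E. coli TOP10(DE3) ΔrhaA at 34 °C. Each TEVp single-site mutant (parent TEVp 0) is paired with a single-site variant of the 7-mer TEVs (canonical ENLYFQ|S). The substrate sits between flexible linkers in a Bxb1-sfGFP-TEVs-SsrA fusion, so cleavage stabilises Bxb1 and speeds flipping of a recombination array, read by NGS. The value is the raw area under the fraction-flipped curve over 0-4 h after rhamnose induction (AUC4h), with ≥20 reads per time point. It is not background-subtracted; inactive controls average about 0.047.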
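Further: Bxb1 expression induced with 0.2% (w/v) L-rhamnose at OD600 near 0.5, cultures sampled hourly, flipped fraction per protease–substrate barcode pair counted by paired-end Illumina sequencing.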

| Variant | area with substrate ENLYFQC | area with substrate ENLYFQF | area with substrate ENLYFQK | area with substrate ENLYFQL | area with substrate ENLYFQM | area with substrate ENLYFQN | area with substrate ENLYFQR | area with substrate ENLYFQS | area with substrate ENLYFQW | area with substrate ENLYFQD | area with substrate ENLYFQG | area with substrate ENLYFQP | area with substrate ENLYFQV | area with substrate ENLYFQY | area with substrate ENLYFQH | area with substrate ENLYFQI | area with substrate ENLYFQT | area with substrate ENLYFQE | area with substrate ENLYFQQ |
| --- | --- | --- | --- | --- | --- | --- | --- | --- | --- | --- | --- | --- | --- | --- | --- | --- | --- | --- | --- |
| MGESLFKGPRDYNPISSSICHLTNESDGHTTSLYGIGFGPFIITNKHLFRRNNGTLVVQSLHGVFKVKDTTTLQQHLVDGRDMIIIRMPKDFPPFPQKLKFREPQFEERICLVTTNFQTKSMSSMVSDTSCTFPSGDGIFWKHWIQTKDGQCGSPLVSTRDGFIVGIHSASNFTNTNNYFTSVPKNFMELLTNQEAQQWVSGWRLNADSVLWGGHKVFMVKPEEPFQPVKEATQL [R106F] | 0.114 | 0.077 | 0.0677 | 0.0522 | 0.0758 | 0.0672 | 0.0535 | 0.0996 | 0.0689 | – | – | – | – | – | – | – | – | – | – |
| MGESLFKGPRDYNPISSSICHLTNESDGHTTSLYGIGFGPFIITNKHLFRRNNGTLVVQSLHGVFKVKDTTTLQQHLVDGRDMIIIRMPKAFPPFPQKLKFREPQREERICLVTTNFQTKSMSSMVSDTSCTFPSGDGIFWKHWIQTKDGQCGSPLVSTRDGFIVGIHSASNFTNTNNYFTSVPKNFMELLTNQEAQQWVSGWRLNADSVLWGGHKVFMVKPEEPFQPVKEATQL [D91A] | 0.123 | – | – | 0.0714 | – | 0.0811 | 0.0526 | 0.0994 | 0.0745 | 0.0684 | 0.115 | 0.06 | 0.0475 | 0.0738 | – | – | – | – | – |
| MGESLFKGPRDYNPISSSICHLTNESDGHTTSLYGIGFGPFIITNKHLFRRNNGTLVVQSLHGVFKVTDTTTLQQHLVDGRDMIIIRMPKDFPPFPQKLKFREPQREERICLVTTNFQTKSMSSMVSDTSCTFPSGDGIFWKHWIQTKDGQCGSPLVSTRDGFIVGIHSASNFTNTNNYFTSVPKNFMELLTNQEAQQWVSGWRLNADSVLWGGHKVFMVKPEEPFQPVKEATQL [K68T] | 0.138 | – | 0.0479 | – | 0.0905 | – | 0.0762 | 0.103 | 0.0549 | 0.0798 | 0.1 | – | 0.0571 | 0.0836 | 0.0863 | 0.0551 | 0.0561 | – | – |
| MGESLFKGPRDYNPISSSICHLTNESDGHTWSLYGIGFGPFIITNKHLFRRNNGTLVVQSLHGVFKVKDTTTLQQHLVDGRDMIIIRMPKDFPPFPQKLKFREPQREERICLVTTNFQTKSMSSMVSDTSCTFPSGDGIFWKHWIQTKDGQCGSPLVSTRDGFIVGIHSASNFTNTNNYFTSVPKNFMELLTNQEAQQWVSGWRLNADSVLWGGHKVFMVKPEEPFQPVKEATQL [T31W] | 0.118 | 0.0718 | – | – | 0.0824 | 0.0879 | 0.0452 | 0.0925 | 0.0654 | 0.0563 | 0.101 | 0.0439 | 0.0911 | 0.0955 | 0.0744 | 0.0689 | 0.0785 | – | – |
| MGESLFKGPRDYNPISSSICHLTNESDGHTTSLYGIGFGPFIITNKHLFRRNNGTLVVQSLHGVFKVKDTTTLQCHLVDGRDMIIIRMPKDFPPFPQKLKFREPQREERICLVTTNFQTKSMSSMVSDTSCTFPSGDGIFWKHWIQTKDGQCGSPLVSTRDGFIVGIHSASNFTNTNNYFTSVPKNFMELLTNQEAQQWVSGWRLNADSVLWGGHKVFMVKPEEPFQPVKEATQL [Q75C] | 0.13 | 0.087 | 0.0606 | 0.0559 | 0.0766 | 0.0611 | 0.0568 | 0.0978 | 0.0617 | 0.0693 | 0.137 | 0.0485 | 0.0616 | 0.064 | 0.0685 | 0.0781 | 0.0528 | – | – |
| MGESLFKGPRDYNPISSSICHLTNESDGHTTSLYGDGFGPFIITNKHLFRRNNGTLVVQSLHGVFKVKDTTTLQQHLVDGRDMIIIRMPKDFPPFPQKLKFREPQREERICLVTTNFQTKSMSSMVSDTSCTFPSGDGIFWKHWIQTKDGQCGSPLVSTRDGFIVGIHSASNFTNTNNYFTSVPKNFMELLTNQEAQQWVSGWRLNADSVLWGGHKVFMVKPEEPFQPVKEATQL [I36D] | 0.043 | – | 0.051 | 0.0328 | 0.0461 | – | 0.0419 | 0.0415 | 0.0483 | 0.0355 | – | 0.0379 | – | – | 0.0594 | 0.0468 | 0.0459 | 0.0364 | – |
| MGESLFKGPRDYNPISSSICHLTNESDGHTTSLYGIGFGPFIITNKHLFRRNNGTLVVQSLHGVFKVKLTTTLQQHLVDGRDMIIIRMPKDFPPFPQKLKFREPQREERICLVTTNFQTKSMSSMVSDTSCTFPSGDGIFWKHWIQTKDGQCGSPLVSTRDGFIVGIHSASNFTNTNNYFTSVPKNFMELLTNQEAQQWVSGWRLNADSVLWGGHKVFMVKPEEPFQPVKEATQL [D69L] | 0.0879 | 0.106 | 0.0535 | 0.0574 | – | 0.0695 | 0.0637 | 0.0765 | 0.0585 | – | 0.074 | 0.0675 | 0.0596 | 0.0738 | 0.055 | – | 0.064 | 0.052 | 0.0573 |
| MGESLFKGPRDYNPISSSICHLTNESDGHTTSLYGIGFGPFIIWNKHLFRRNNGTLVVQSLHGVFKVKDTTTLQQHLVDGRDMIIIRMPKDFPPFPQKLKFREPQREERICLVTTNFQTKSMSSMVSDTSCTFPSGDGIFWKHWIQTKDGQCGSPLVSTRDGFIVGIHSASNFTNTNNYFTSVPKNFMELLTNQEAQQWVSGWRLNADSVLWGGHKVFMVKPEEPFQPVKEATQL [T44W] | 0.0454 | – | 0.0477 | 0.0464 | 0.0631 | 0.0403 | 0.0416 | 0.0455 | 0.0469 | 0.0486 | 0.076 | 0.0227 | 0.0612 | – | – | 0.0458 | 0.0509 | – | – |
| MGESLFKGPRDYNPISSSICHLTNESDGHTTSLYGIGFGPFIITNKHLFRRNNGTLVVQSLHGVFKVKDTTTLQQHLFDGRDMIIIRMPKDFPPFPQKLKFREPQREERICLVTTNFQTKSMSSMVSDTSCTFPSGDGIFWKHWIQTKDGQCGSPLVSTRDGFIVGIHSASNFTNTNNYFTSVPKNFMELLTNQEAQQWVSGWRLNADSVLWGGHKVFMVKPEEPFQPVKEATQL [V78F] | 0.0938 | – | – | – | 0.0874 | 0.0809 | 0.0881 | 0.0896 | 0.0684 | 0.0495 | 0.111 | 0.0406 | – | 0 | – | 0.0525 | – | – | – |
